Results as given in the RNAGym collection of RNA variant scans (doi:10.7554/elife.90254).
Read counts are not given, so values of variants with three or more changes are uncertain.

B1: LINE1-mini (parent)
chain: GGCAGAGCUCAACACAGCGUGGCAAAGUGGCUGUGGCUAGACUGCC

Variants of: B1
Assay: self-cleavage, relative activity (ratio to wild type); higher = more cleavage; in vitro, sequencing; the parent is a self-cleaving ribozyme

Question: With GGUAGAGCUCAACACAGCGUGGCAAAAUGUCUGUGGCUACACUGCC [C3U G27A G30U G40C] as the variant, how does the self-cleavage read?
Answer: 0.06

Question: For GGCCGAGCUCAACACUGCGUGGCAAAGUGGCUGUGGCUAUACUGCC [A4C A16U G40U], which self-cleavage is on record?
Answer: 0.13

Question: For GGCCGAGGUCAACACAGCGUGGCAAAGUGGCUGUGGAUAGACUGCG [A4C C8G C37A C46G], which self-cleavage is on record?
Answer: 0.13

Question: Which self-cleavage does the source give for GGCCGUGAUCAACACAGCGUGGCAAAGUGUCUGUGGCUAGACUGCC [A4C A6U C8A G30U] here?
Answer: 0.96

Question: With GGCCGAGCUCAUCACAGCGUGGCAAAGCGGCUGUGGCUAGACUGCC [A4C A12U U28C] as the variant, how does the self-cleavage read?
Answer: 0.09

Question: Which self-cleavage does the source give for GGUAGAGCUCAACACAGCGUAGCAAAGUGGCUGUGCCUUGACUGCC [C3U G21A G36C A39U] here?
Answer: 0.17

Question: For GGUAGAGCUCAACACAGCGAGGCAAAGUGGCUGUGGCUGGACUGCC [C3U U20A A39G], which self-cleavage is on record?
Answer: 0.02

Question: Which self-cleavage does the source give for GGUAGAGCUCAACACAGCGUGGCAAAGUGGCCGUGGCUAUACUGCC [C3U U32C G40U] here?
Answer: 0.06

Question: Which self-cleavage does the source give for GGCCGAGCUCAACACAGCGUGGCAGAGUGGCUGUGGCUAGUCUGCC [A4C A25G A41U] here?
Answer: 0.15

Question: With GGUAGAGCUCAACACAGCGUGGCAAAGUGGCUUUGGCUAGGCUGCC [C3U G33U A41G] as the variant, how does the self-cleavage read?
Answer: 0.12

Question: For GGCCGAGCUCACCGCAGGGUGGCAGAGUGGCUAAGGCUAGACUGCC [A4C A12C A14G C18G A25G G33A U34A], which self-cleavage is on record?
Answer: 0.1

Question: With GGUAGAGCUCAACACAGCGUGACAAAGUGGCUGUGGCUAGACAGCC [C3U G22A U43A] as the variant, how does the self-cleavage read?
Answer: 0.14

Question: With GGCCGAGCUCAACACAGCGUGGCAUAGUGGCUAUGGUUAGACUGCC [A4C A25U G33A C37U] as the variant, how does the self-cleavage read?
Answer: 0.09

Question: With GGCCGAGCUCAACACGGCGUGGCAAAGUGUCUGUGGCUAGACUGCA [A4C A16G G30U C46A] as the variant, how does the self-cleavage read?
Answer: 0.04

Question: With GGCCGAGGUCAACACAGCGUGGCAAAGUGGCUGUGGCUAGACAGCC [A4C C8G U43A] as the variant, how does the self-cleavage read?
Answer: 0.03

Question: With GGUAGAGCUCAACACAGCGUGCCAGAGUGGCUGUGGCUAGUCUGCC [C3U G22C A25G A41U] as the variant, how does the self-cleavage read?
Answer: 0.1

Question: With GGUAGAGCUCAACACAGCGAGGCCAAGGGGCUGUGGCUAGACUGCC [C3U U20A A24C U28G] as the variant, how does the self-cleavage read?
Answer: 0.14

Question: Which self-cleavage does the source give for GGUAGAGCUCAACACAGCGUGGCAAAGUGGCUAUGGCCAGAUUGCC [C3U G33A U38C C42U] here?
Answer: 0.08

Question: For GGCCGUGCUCAACACAGAGUGGCAAAGCGGCUGUGGCUAGACUGUU [A4C A6U C18A U28C C45U C46U], which self-cleavage is on record?
Answer: 0.08

Question: With GGUAGAGCUCAACACAGCGUGACAAAGUGCCUGCGGCUAGACUGCC [C3U G22A G30C U34C] as the variant, how does the self-cleavage read?
Answer: 0.08

Question: For GGCCGAGCUCACCAAAACGUGGCAAAGUGGCUGUGGCUACACUGUC [A4C A12C C15A G17A G40C C45U], which self-cleavage is on record?
Answer: 0.03

Question: For GGCCGAGCUCUACACAGCGUGGCAAAGUGGCUGGGGUUAGACUCCC [A4C A11U U34G C37U G44C], which self-cleavage is on record?
Answer: 0.01

Question: With GGUAGAGCAGAACACAGCGUGGCAAAGUGGCUGUGGCUAGACUGAC [C3U U9A C10G C45A] as the variant, how does the self-cleavage read?
Answer: 0.01

Question: Which self-cleavage does the source give for GGCCGAGCUCAACACAGCGUGGCAAAGUGGCUGUGGCUAGUCUGCU [A4C A41U C46U] here?
Answer: 0.06

Question: For GGCCGAGGUCAACACACCGUGGCAAAGUGGCUGUUGCUAGACUGCC [A4C C8G G17C G35U], which self-cleavage is on record?
Answer: 0.12

Question: Which self-cleavage does the source give for GGCCGAGCUCAACACAGCGUGGCAUCGUGGCUGUGGCUAGACUGCC [A4C A25U A26C] here?
Answer: 0.03

Question: For GGUAGAGCUCAACACAGCGUGGCAAAGUUGCUGUGGAUAGACUGCC [C3U G29U C37A], which self-cleavage is on record?
Answer: 0.22

Question: For GGUAGAGCUCAACACAGCGUGCCGAAGUGCCUGUGGCAAGACUACC [C3U G22C A24G G30C U38A G44A], which self-cleavage is on record?
Answer: 0.24

Question: For GGUAGAGCUCAACACAGCCUGGCAAAGUGGGUGUGUCUAGACUGCA [C3U G19C C31G G36U C46A], which self-cleavage is on record?
Answer: 0.04

Question: With GGCCGAGACCAACACAGCGUGGCUAAGUGGCUGUGGCAAGACUGCC [A4C C8A U9C A24U U38A] as the variant, how does the self-cleavage read?
Answer: 1.36

Question: With GGCCGAGAUCAACACAGCCUGGCAAGGUGGCUGUGGAUAGACUGGC [A4C C8A G19C A26G C37A C45G] as the variant, how does the self-cleavage read?
Answer: 0.01

Question: With GGCCGUGCUCGACACAGCGUGGCAAAGUGGCUGUGGCUAGACUGCA [A4C A6U A11G C46A] as the variant, how does the self-cleavage read?
Answer: 0.02

Question: Which self-cleavage does the source give for GGCCGAGCUCAUCACAGCGUGGCAAAGUGGCUGUAGCUAGACUGCC [A4C A12U G35A] here?
Answer: 0.05

Question: Which self-cleavage does the source give for GGUAGAGCUCAACACAGCGUGCCAAAGCGGCUGUGGAUAGACUGCC [C3U G22C U28C C37A] here?
Answer: 0.02

Question: For GGCCGAGGUACACACAGCGUGGCAAAGUGGCUGUAGCUAGACUGAC [A4C C8G C10A A11C G35A C45A], which self-cleavage is on record?
Answer: 0.02

Question: With GGUAGAGCUCAACACAGCGGGGCAAAGUGGAUGUGGCUAGACUGCA [C3U U20G C31A C46A] as the variant, how does the self-cleavage read?
Answer: 0.03

Question: With GGUAGAGCUCAACACAGCGUGGCAAAGUGGCUAUGACUAGACUGGC [C3U G33A G36A C45G] as the variant, how does the self-cleavage read?
Answer: 0.05

Question: With GGCCGAGCUCAACUCAGCGUGACAAAAUGGCUGUGGCUAGCCUGCC [A4C A14U G22A G27A A41C] as the variant, how does the self-cleavage read?
Answer: 0.01

Question: With GGUAGAGCUCAACACAGCGUGGCAAAGUGGCUGUAGAUAGACUGCC [C3U G35A C37A] as the variant, how does the self-cleavage read?
Answer: 0.31

Question: Which self-cleavage does the source give for GGCCGAGCUCGACACAGCGUGGCAAAGUAGCUGUGGCUAGACUGCC [A4C A11G G29A] here?
Answer: 0.01

Question: Which self-cleavage does the source give for GGCCGUGCUCAACACAGCGACGCAGAGUAGCUGUGGCUAGACUGCC [A4C A6U U20A G21C A25G G29A] here?
Answer: 0.03

Question: For GGCCGAGCUCAACCGAGCGCGGCAAAGUGGCUGUCGCUACACUGCC [A4C A14C C15G U20C G35C G40C], which self-cleavage is on record?
Answer: 0

Question: With GGCCGAGCUCAUCACAGCGUGGCAAAGUGGCUCUGGCUAGACUGCC [A4C A12U G33C] as the variant, how does the self-cleavage read?
Answer: 0.08

Question: For GGCCGAGCUCAGCACAGCGUGGCAAAGUGGCUUUGGCUAGACUGUC [A4C A12G G33U C45U], which self-cleavage is on record?
Answer: 0.29

Question: With GGCCGAGUUCAAGACAGCUUGGCAAAGUGGCUGUGGAUAGACUGCC [A4C C8U C13G G19U C37A] as the variant, how does the self-cleavage read?
Answer: 0.03

Question: For GGUAGAGCUCAACACAGCGUGGCAAAGUGCCUGUGGCUAGCCUGCC [C3U G30C A41C], which self-cleavage is on record?
Answer: 0.13

Question: Which self-cleavage does the source give for GGCCGAGAUCAACACAGCGUGGCAGAGUGGCUGUGGCUAGACUACC [A4C C8A A25G G44A] here?
Answer: 0.16

Question: For GGUAGAGCUCAACACAGCGUGGCAAAGUGGCUGUGACUUGACUGCC [C3U G36A A39U], which self-cleavage is on record?
Answer: 0.62

Question: For GGCCGUGCUCAACACAGCGUGCCAAAGUGGCAGUGGCUAGACUGCC [A4C A6U G22C U32A], which self-cleavage is on record?
Answer: 0.05

Question: With GGCCGAGCUCAGCACAGCGUGGCAAAGGGUCUCUGGCUAGACUGCC [A4C A12G U28G G30U G33C] as the variant, how does the self-cleavage read?
Answer: 0.01

Question: For GGCCGAGGUCAACACAGCGUGGCAAAGUGGGCGUGGCUACACUGCC [A4C C8G C31G U32C G40C], which self-cleavage is on record?
Answer: 0.04

Question: With GGCCGAGCUCAGCACAGCGUGGCAAAGUGGAUGUGGCUCCACUGCC [A4C A12G C31A A39C G40C] as the variant, how does the self-cleavage read?
Answer: 0.02

Question: Which self-cleavage does the source give for GGCCGAGAUCAACACAGCGUAGCAAUGUGGCUGUGCCUAGACUGCC [A4C C8A G21A A26U G36C] here?
Answer: 1

Question: Which self-cleavage does the source give for GGUAGAGCACAACACAGCGUGGCAAAAAGGCUGUGGCUAGACUGCC [C3U U9A G27A U28A] here?
Answer: 0.42

Question: Which self-cleavage does the source give for GGUAGAGCUCAACACAGCGUAGCAAAGUGGCUGUGGCUAGACAGCC [C3U G21A U43A] here?
Answer: 0.3

Question: Which self-cleavage does the source give for GGCCGAGCUCAACACAGCGUGGCACAGUGUCUGUGGAUAGAAUGCC [A4C A25C G30U C37A C42A] here?
Answer: 0.02
